# Experimental data taken from PMC4274898.
# Chains of the proteins cited; added tags and fusions are not shown.
# UniProt Q38832: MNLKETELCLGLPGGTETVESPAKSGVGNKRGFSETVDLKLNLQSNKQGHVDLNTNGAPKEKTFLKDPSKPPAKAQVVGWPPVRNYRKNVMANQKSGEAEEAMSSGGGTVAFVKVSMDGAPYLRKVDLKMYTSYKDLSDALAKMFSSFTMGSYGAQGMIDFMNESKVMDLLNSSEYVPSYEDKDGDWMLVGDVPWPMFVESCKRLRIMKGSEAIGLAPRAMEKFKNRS
# UniProt P93830: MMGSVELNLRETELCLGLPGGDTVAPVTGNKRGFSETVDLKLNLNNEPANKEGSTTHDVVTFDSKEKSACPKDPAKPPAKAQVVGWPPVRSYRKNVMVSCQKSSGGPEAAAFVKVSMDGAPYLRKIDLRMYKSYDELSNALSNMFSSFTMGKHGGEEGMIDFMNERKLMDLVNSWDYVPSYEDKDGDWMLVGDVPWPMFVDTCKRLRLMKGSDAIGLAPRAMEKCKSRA
# Like-named read-outs stand apart in the source and are kept apart here. No constants are given. Whether binding was seen depends on the method and setting. Some entries that bind do so weakly or less than the wild type.
# T1: ARF17 (Arabidopsis thaliana) (UniProt Q84WU6)
# T1 sequence: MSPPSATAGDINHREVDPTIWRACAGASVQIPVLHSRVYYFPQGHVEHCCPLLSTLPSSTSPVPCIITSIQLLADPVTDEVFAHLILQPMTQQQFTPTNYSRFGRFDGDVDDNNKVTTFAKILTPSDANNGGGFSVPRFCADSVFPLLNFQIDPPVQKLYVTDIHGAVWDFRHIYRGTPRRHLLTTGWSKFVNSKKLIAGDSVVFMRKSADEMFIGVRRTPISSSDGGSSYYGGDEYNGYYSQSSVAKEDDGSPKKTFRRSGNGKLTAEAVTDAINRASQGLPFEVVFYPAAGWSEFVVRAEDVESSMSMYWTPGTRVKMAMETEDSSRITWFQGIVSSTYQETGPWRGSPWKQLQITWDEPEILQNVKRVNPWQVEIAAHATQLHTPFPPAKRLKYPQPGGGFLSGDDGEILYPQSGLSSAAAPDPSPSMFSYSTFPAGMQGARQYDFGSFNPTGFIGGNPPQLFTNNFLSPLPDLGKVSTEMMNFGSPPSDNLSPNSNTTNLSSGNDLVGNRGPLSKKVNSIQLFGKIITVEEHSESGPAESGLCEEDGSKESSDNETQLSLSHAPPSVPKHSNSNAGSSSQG
# T2: ARF1 (Arabidopsis thaliana) (UniProt Q8L7G0)
# T2 sequence: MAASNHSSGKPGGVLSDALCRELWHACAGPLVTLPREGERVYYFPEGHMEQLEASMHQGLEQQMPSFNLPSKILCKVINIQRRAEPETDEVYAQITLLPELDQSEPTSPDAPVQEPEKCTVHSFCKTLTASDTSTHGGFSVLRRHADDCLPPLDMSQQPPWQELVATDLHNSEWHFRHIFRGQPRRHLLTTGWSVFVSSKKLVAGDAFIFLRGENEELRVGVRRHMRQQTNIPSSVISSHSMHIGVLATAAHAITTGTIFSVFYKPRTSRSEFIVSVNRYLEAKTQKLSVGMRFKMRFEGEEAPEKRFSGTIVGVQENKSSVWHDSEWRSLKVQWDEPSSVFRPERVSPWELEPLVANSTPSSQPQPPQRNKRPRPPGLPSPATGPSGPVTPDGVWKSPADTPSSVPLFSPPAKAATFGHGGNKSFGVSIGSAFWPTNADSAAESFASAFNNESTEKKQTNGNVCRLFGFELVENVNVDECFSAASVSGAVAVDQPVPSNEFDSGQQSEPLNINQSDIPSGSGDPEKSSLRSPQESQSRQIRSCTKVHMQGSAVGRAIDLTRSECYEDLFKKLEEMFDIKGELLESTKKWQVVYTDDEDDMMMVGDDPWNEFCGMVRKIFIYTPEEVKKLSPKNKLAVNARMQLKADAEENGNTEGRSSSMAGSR
# T3: ARF2 (Arabidopsis thaliana) (UniProt Q94JM3)
# T3 sequence: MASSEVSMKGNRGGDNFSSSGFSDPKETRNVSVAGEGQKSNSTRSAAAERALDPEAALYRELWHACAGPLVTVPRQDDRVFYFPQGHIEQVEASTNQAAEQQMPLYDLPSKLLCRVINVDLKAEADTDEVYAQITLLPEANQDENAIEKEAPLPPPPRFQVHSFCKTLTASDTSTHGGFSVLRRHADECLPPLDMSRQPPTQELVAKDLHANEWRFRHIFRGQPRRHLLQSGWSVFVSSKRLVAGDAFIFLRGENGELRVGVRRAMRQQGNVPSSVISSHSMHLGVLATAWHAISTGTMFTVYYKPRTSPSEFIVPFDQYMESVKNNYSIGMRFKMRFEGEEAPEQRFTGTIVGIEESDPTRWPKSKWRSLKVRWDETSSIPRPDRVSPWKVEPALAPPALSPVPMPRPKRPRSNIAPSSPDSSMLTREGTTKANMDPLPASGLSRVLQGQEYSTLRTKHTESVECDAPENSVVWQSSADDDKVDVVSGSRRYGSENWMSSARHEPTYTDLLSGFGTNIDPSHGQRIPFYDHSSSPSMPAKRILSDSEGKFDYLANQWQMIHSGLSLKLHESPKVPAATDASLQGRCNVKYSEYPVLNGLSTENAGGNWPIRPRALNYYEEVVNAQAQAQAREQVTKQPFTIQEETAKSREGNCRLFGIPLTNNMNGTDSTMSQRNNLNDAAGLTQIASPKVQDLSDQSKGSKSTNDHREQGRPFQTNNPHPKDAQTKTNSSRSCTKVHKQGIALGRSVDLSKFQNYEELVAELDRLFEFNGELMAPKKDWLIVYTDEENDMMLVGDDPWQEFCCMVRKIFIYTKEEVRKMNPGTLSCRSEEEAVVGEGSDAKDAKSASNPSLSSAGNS
# Experiments:
# Assay in all cases: two-hybrid; S. cerevisiae AH109 co-transformed with pGBKT7-ARF (bait) and pGADT7-Aux/IAA (prey); growth on SD/-Ade-His-Leu-Trp against SD/-Leu/-Trp; at least 10 independent colonies; serial dilutions for strength
# [1] = target: T1, ARF17 (Arabidopsis thaliana)
# [2] = target: T2, ARF1 (Arabidopsis thaliana)
# [3] = target: T2, ARF1 (Arabidopsis thaliana); remark: listed apart in the source
# [4] = target: T3, ARF2 (Arabidopsis thaliana)
molecule,measurement,setting,value
Aux/IAA14 (from UniProt Q38832 1-228),binding,[1],binds
Aux/IAA17 (from UniProt P93830 1-229),binding,[2],binds
"Aux/IAA32 (protein, UniProt Q8RYC6 1-191) MDPNTPADFFKGSSKFHTYYSQTKKGGGVIDLGLSLRTIQHETYLPPARMIGLDGYGELIDWSQPSYNSITQLKSEDTGHQRLAQGYYNNEGESRGKYAYVKVNLDGLVVGRKVCLVDQGAYATLALQLNDMFGMQTVSGLRLFQTESEFSLVYRDREGIWRNVGDVPWKEFVESVDRMRIARRNDALLPF",binding,[3],binds
"Aux/IAA6 (protein, UniProt Q38824 1-189) MAKEGLALEITELRLGLPGDNYSEISVCGSSKKKKRVLSDMMTSSALDTENENSVVSSVEDESLPVVKSQAVGWPPVCSYRRKKNNEEASKAIGYVKVSMDGVPYMRKIDLGSSNSYINLVTVLENLFGCLGIGVAKEGKKCEYIIIYEDKDRDWMLVGDVPWQMFKESCKRLRIVKRSDATGFGLQQD",binding,[4],no binding
"Aux/IAA34 (protein, UniProt Q9C5X0 1-185) MYCSDPPHPLHLVASDKQQKDHKLILSWKKPTMDSDPLGVFPNSPKYHPYYSQTTEFGGVIDLGLSLRTIQHEIYHSSGQRYCSNEGYRRKWGYVKVTMDGLVVGRKVCVLDHGSYSTLAHQLEDMFGMQSVSGLRLFQMESEFCLVYRDEEGLWRNAGDVPWNEFIESVERLRITRRNDAVLPF",binding,[3],binds
"Aux/IAA5 (protein, UniProt P33078 1-163) MANESNNLGLEITELRLGLPGDIVVSGESISGKKRASPEVEIDLKCEPAKKSQVVGWPPVCSYRRKNSLERTKSSYVKVSVDGAAFLRKIDLEMYKCYQDLASALQILFGCYINFDDTLKESECVPIYEDKDGDWMLAGDVPWEMFLGSCKRLRIMKRSCNRG",binding,[4],no binding
